Measured values reported in PubChem BioAssay AID2675 (National Center for Advancing Translational Sciences (NCATS), 2010).
About 100 (0.036%) of roughly 280,000 compounds were called active. The shares of active, inactive and inconclusive entries below differ from those in the screen. The call rests on the fitted dose curve; in most records, active means well fitted inhibition curve with a large enough effect in the signal ratio, with a control signal flat (not every such curve was filed as active); inconclusive means small, poorly fitted or top-dose-only effect, or effect the other way, or a change in a side signal; inactive means no such curve, though single readings can be large or run the other way; the % refers to the signal ratio. Potencies beside an inconclusive call are fits to weak or partial responses and may not hold up. A note “side channel” means that the fit belongs to a control or component signal, not to the main read-out.

Biological target: Muscleblind-like protein 1 (Homo sapiens) (UniProt Q9NR56)
UniProt Q9NR56, sequence (Q9NR56 whole entry, looked up): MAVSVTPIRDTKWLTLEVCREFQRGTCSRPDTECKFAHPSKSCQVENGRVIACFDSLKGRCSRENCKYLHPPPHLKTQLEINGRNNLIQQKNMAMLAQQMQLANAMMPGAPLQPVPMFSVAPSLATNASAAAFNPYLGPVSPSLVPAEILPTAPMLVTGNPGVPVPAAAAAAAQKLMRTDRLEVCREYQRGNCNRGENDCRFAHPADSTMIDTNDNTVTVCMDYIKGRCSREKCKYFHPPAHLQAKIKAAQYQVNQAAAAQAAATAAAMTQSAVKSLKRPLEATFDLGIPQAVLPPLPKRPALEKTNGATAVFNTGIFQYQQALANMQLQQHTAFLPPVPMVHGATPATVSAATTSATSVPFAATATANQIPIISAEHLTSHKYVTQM
Experiment: qHTS Assay for Inhibitors of MBNL1-poly(CUG) RNA binding
Conditions: TR-FRET MBNL1-His/biotin-(CUG)12 binding, 665/545 ratio; series mostly up to 57.5 µM
Summary of the method: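 TR-FRET readout: Ex 340 nm, 665/545 nm emission ratio, normalized to buffer-only (basal) and MBNL1-(CUG)12 controls. Complex of MBNL1-His with Biotin-(CUG)12, compounds 92 nM–58 uM, incubated 60 min at room temperature.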
Potency means the concentration at half of the fitted maximal effect; tags describe the fitted curve by direction and shape or compound fluorescence and quenching.

SMILES	Potency
COc1ccc(C2c3sc(=O)[nH]c3SC3C4CCC(C4)C23)cc1 (configuration not stated)	inconclusive: 39.8 µM [quencher, side channel, single point]
COCCn1c(-c2ccccc2)nc2c(c(=O)c3ccccc3n2C)c1=O	inconclusive: 28.2 µM [fluorescent, side channel, partial curve]
CCC(CC)C(=O)NCCc1cc2ccc(C)c(C)c2[nH]c1=O	inconclusive: 0.631 µM [quencher, side channel, single point]
COc1ccccc1OCC(=O)N/N=C1\CCc2ccccc21	inactive
COc1ccc(/C=C2\SC(=O)N(CCNC(=O)C3CC(=O)N(c4ccccc4)C3)C2=O)cc1 (configuration not stated)	inconclusive: 2.51 µM [quencher, side channel, full curve]
COCC(C)NC(=O)c1cc(-c2ccc(OC)c(OC)c2)on1 (configuration not stated)	inconclusive: 8.91 µM [fluorescent, side channel, partial curve, poor fit]
O=c1ccc(N=Nc2ccccc2)ccc1O	inconclusive: 4.47 µM [quencher, side channel, full curve]
Cc1ccc(C)c(NC(=O)CN(C)C(=O)[C@@H](NC(=O)c2ccc(C(C)(C)C)cc2)C(C)C)c1	inconclusive: 0.1 µM [fluorescent, side channel, partial curve]
COc1ccc(-c2[nH]ncc2/C=C(\C#N)C(=O)NC2CC2)cc1	inconclusive: 15.8 µM [quencher, side channel, partial curve]
CCOCCCn1c(=N)c(C(=O)NCc2ccc3c(c2)OCO3)cc2c(=O)n3ccccc3nc21	inconclusive: 3.16 µM [quencher, side channel, full curve]
O=C1Nc2ccc(Cl)cc2C12Nc1ccccc1-c1nnc(SCc3ccccc3F)nc1O2 (configuration not stated)	inconclusive: 39.8 µM [quencher, side channel, single point]
O=C(O)CCCN1C(=O)c2cccc3cccc(c23)C1=O	inconclusive: 7.94 µM [quencher, side channel, partial curve]
COCCn1c(N)c(Sc2ccccc2[N+](=O)[O-])c(=O)[nH]c1=O	inconclusive: 14.1 µM [quencher, partial curve]
CC1CCCCC1NC(=O)CN1CCC(NC(=O)c2cccc(F)c2)CC1 (configuration not stated)	inactive
COc1ccc(NC(=O)CCNS(=O)(=O)c2cccc3nonc23)cc1Cl	inconclusive: 11.2 µM [quencher, side channel, partial curve]
O=[N+]([O-])c1ccccc1S(=O)(=O)c1ccccc1	inconclusive: 20 µM [quencher, side channel, partial curve]
CCCCN(C)CCNC(=O)C1CCN(S(=O)(=O)c2cccc3nsnc23)CC1	inconclusive: 17.8 µM [quencher, side channel, partial curve]
CCOc1ccc(S(=O)(=O)NCc2ccc(Cl)cc2)c2cccnc12	inactive
O=C(COC(=O)/C=C/c1ccccc1[N+](=O)[O-])NCC1CCCO1 (configuration not stated)	inconclusive: 10 µM [quencher, side channel, partial curve]

SMILES	Potency
COc1cc(NC(=O)c2ccc([N+](=O)[O-])o2)ccc1NC(=O)c1ccco1	inconclusive: 0.891 µM [quencher, side channel, full curve]
COc1ccc(CCNC(=O)CN2C(=O)c3cccc4cccc(c34)C2=O)cc1OC	inconclusive: 1 µM [quencher, side channel, full curve, poor fit]
COc1ccc(NC(=O)COc2ccc(C(=O)NC3CCCc4ccccc43)cc2OC)cc1 (configuration not stated)	inconclusive: 0.126 µM [fluorescent, side channel, full curve, poor fit]
CN1CCN(C(=O)CSc2nc(-c3ccco3)cc(C(F)(F)F)n2)CC1	inconclusive: 31.6 µM [quencher, side channel, partial curve]
CCCOC(=O)C1=C(C)NC2=C(C(=O)CCC2)C1c1cccc(OC)c1OC (configuration not stated)	inconclusive: 31.6 µM [quencher, side channel, single point]
CCOc1ccc(NC(C)=O)cc1[N+](=O)[O-]	inconclusive: 20 µM [quencher, side channel, partial curve]
NCCCC[C@@H]1NC(=O)c2cc([N+](=O)[O-])cc(I)c2SC[C@@H](C(N)=O)NC(=O)[C@H](CCC(N)=O)NC1=O	inconclusive: 12.6 µM [quencher, side channel, partial curve]
COc1cccc(C(=O)NCCSc2ccc(C)cc2)c1	inconclusive: 39.8 µM [fluorescent, side channel, partial curve, poor fit]
O=C(COC(=O)c1cc([N+](=O)[O-])ccc1N1CCOCC1)NCc1ccc(F)cc1	inconclusive: 39.8 µM [quencher, single point]
O=S(=O)(Nc1cccc2nsnc12)c1ccccc1	inconclusive: 22.4 µM [quencher, side channel, single point]
COc1ccc(O)c(/C=C2/SC(=S)N(Cc3ccccc3)C2=O)c1	inactive
CC1CCN(c2cc(N)c(Cl)cc2[N+](=O)[O-])CC1	inconclusive: 15.8 µM [quencher, partial curve]
Cc1cccc(NC(=O)NNC(=O)c2cc3occc3[nH]2)c1C	inactive
CC(=O)Oc1ccc2c(=O)c(Oc3ccccc3[N+](=O)[O-])coc2c1	inconclusive: 15.8 µM [quencher, side channel, partial curve]
Cc1ccc(/C=N/N=C/c2ccc(C)s2)s1	inconclusive: 20 µM [quencher, side channel, single point]
O=C(NC(=S)Nc1ccccc1[N+](=O)[O-])c1ccco1	inconclusive: 28.2 µM [quencher, side channel, partial curve]
O=C(CNC(=O)C(c1ccccc1)c1ccccc1)N/N=C/c1ccc(O)cc1O	inactive
Clc1ccc(-c2csc(NNC3=NCCCCC3)n2)cc1	inactive
O=C1C=C(c2cccs2)CC(c2cccs2)C1n1cnc([N+](=O)[O-])c1 (configuration not stated)	inconclusive: 14.1 µM [quencher, side channel, partial curve]

SMILES	Potency
O=C(N=Nc1c(O)[nH]c2ccccc12)c1ccc(CN2CCOCC2)cc1	inconclusive: 11.2 µM [quencher, side channel, partial curve]
O=C(CN1CCCC1)N/N=C/c1ccc(-c2cccc(Cl)c2)o1	inconclusive: 17.8 µM [quencher, side channel, partial curve]
COc1ccc(C2=NC(C)(C)Cc3cc(OC)c(OC)cc32)cc1	inconclusive: 28.2 µM [quencher, side channel, partial curve]
COc1ccccc1-c1nnc(C2CCN(S(=O)(=O)c3ccc([N+](=O)[O-])cc3)CC2)o1	inconclusive: 2 µM [quencher, side channel, full curve]
CCCC1C(C#N)=C(N)Oc2cc(C)n(C)c(=O)c21 (configuration not stated)	inconclusive: 25.1 µM [quencher, single point]
O=C(CCS(=O)(=O)c1cccc2nsnc12)N1CCN(Cc2ccc3c(c2)OCO3)CC1	inconclusive: 14.1 µM [quencher, side channel, partial curve]
CC(C)CNC(=O)COC(=O)c1ccc2c(c1)C(=O)N(Cc1ccco1)C2=O	inconclusive: 14.1 µM [quencher, side channel, partial curve]
Cc1ccc(-c2nc3c(c(SCC(=O)N4CCOCC4)n2)Cc2c(CO)cnc(C)c2O3)cc1	inconclusive: 14.1 µM [quencher, side channel, partial curve]
CN1CCN(/N=C2/C(=O)Nc3ccc([N+](=O)[O-])cc32)CC1	inconclusive: 15.8 µM [quencher, side channel, partial curve]
CCCCN(C)CCCNC(=O)CC1Oc2ccccc2NC1=O (configuration not stated)	inconclusive: 0.158 µM [quencher, side channel, full curve, poor fit]
COc1cc(/C=C2\SC(=S)N(CC(=O)NC(C)(C)C)C2=O)cc(OC)c1OC	inconclusive: 10 µM [quencher, side channel, partial curve]
CS(=O)(=O)N(CC(=O)Nc1cccc(F)c1)c1cccc([N+](=O)[O-])c1	inconclusive: 12.6 µM [quencher, side channel, partial curve]
Cc1ccc2c(c1)S/C(=C/c1ccc[n+](CCO)c1)N2C	inconclusive: 20 µM [quencher, side channel, partial curve]
O=C(Nc1ccc(-c2nc3ncccc3o2)cc1)c1ccco1	inactive
O=C(c1ncc[nH]1)c1ccccc1C(=O)N1CCOCC1	inconclusive: 8.91 µM [quencher, side channel, full curve, poor fit]
CC(C)CC(=O)Nc1ccc(C(=O)NN2C(=O)c3ccccc3C2=O)cc1	inconclusive: 20 µM [quencher, side channel, single point]
CCC(=O)OCC(=O)Nc1ccc(OC)cc1[N+](=O)[O-]	inconclusive: 12.6 µM [quencher, side channel, partial curve]
CCOC(=O)C1CCCc2c1[nH]c1ccc(Cl)cc21 (configuration not stated)	inactive
Cc1ccc(N(CC#N)C(=O)CS(=O)(=O)c2cccc([N+](=O)[O-])c2)cc1	inconclusive: 14.1 µM [quencher, partial curve]
